In PubChem BioAssay AID720709 (National Center for Advancing Translational Sciences (NCATS), 2013):
About 520 (0.14%) of roughly 360,000 compounds were called active. This list was built around the results that the source calls inconclusive (neither active nor inactive); the mix of calls is not that of the screen. The call rests on the fitted dose curve; in most records, active means well fitted inhibition curve with a large enough effect; inconclusive means small, poorly fitted or top-dose-only effect; inactive means no such curve, though single readings can be large or run the other way. Where the call is inconclusive, the potency comes from a doubtful curve fit.

What follows are molecules tested against Rap guanine nucleotide exchange factor 3 (Homo sapiens) (UniProt O95398) (assay: qHTS for Antagonist of cAMP-regulated guanine nucleotide exchange factor 3 (EPAC1): primary screen). Conditions: EPAC1 GEF assay, Rap1b-BODIPY-GDP exchange fluorescence; activity change, negative = inhibition: at 115 µM (top of the series).
Sequence of UniProt O95398 (O95398 whole entry, looked up): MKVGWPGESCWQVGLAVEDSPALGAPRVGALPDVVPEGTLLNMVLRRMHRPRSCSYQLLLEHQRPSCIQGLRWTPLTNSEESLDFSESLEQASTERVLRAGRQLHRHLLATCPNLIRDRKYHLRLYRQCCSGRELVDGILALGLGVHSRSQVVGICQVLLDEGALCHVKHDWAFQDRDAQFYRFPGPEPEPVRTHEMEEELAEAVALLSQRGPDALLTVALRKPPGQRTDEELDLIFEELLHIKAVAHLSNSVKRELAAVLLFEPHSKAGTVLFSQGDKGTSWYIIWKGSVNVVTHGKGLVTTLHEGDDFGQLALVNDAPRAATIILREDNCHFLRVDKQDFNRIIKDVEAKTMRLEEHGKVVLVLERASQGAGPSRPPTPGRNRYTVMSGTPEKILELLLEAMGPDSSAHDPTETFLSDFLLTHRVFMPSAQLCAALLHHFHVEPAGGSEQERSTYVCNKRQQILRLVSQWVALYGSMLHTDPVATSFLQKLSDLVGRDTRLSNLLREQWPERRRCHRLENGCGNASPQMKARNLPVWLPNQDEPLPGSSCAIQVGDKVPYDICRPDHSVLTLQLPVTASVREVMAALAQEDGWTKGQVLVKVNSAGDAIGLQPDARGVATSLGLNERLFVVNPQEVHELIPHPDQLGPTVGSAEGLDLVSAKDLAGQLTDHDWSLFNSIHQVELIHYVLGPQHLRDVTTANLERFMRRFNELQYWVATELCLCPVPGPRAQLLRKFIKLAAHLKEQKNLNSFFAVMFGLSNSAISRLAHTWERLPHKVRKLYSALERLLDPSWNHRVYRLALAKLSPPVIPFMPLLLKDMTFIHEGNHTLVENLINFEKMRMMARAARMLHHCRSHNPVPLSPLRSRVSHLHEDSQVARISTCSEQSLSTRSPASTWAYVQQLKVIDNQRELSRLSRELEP
Further: nearly all actives have a fitted effect of over 50% in size.
Potency means the concentration at half of the fitted maximal effect; tags describe the fitted curve by direction and shape.
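Wherever activity change, negative = inhibition is given: plate controls were vehicle for no effect and positive control for full effect.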

Potency, active:
O=C1NNC(c2ccccc2)=N/C1=C\c1ccccc1Cl 39.8 µM, C=CCOc1ccc(C=NNc2ccc(S(=O)(=O)Nc3ccccc3C(=O)O)cc2[N+](=O)[O-])cc1OC 50.1 µM

Potency, inconclusive:
CCCCCC(=O)Nc1cc(S(=O)(=O)O)cc2cc(S(=O)(=O)O)cc(O)c12 89.1 µM [inhibitor, partial curve], Cc1c(C=O)c2ccccc2n1CCOc1ccccc1 8.91 µM [inhibitor, full curve, poor fit], Cc1nn(-c2ccccc2)c(N)c1Sc1ccccc1[N+](=O)[O-] 63.1 µM [inhibitor, partial curve], Cc1cc(C)n(-c2ccc(C(=O)N3CCN(S(=O)(=O)c4ccc(C(C)C)cc4)CC3)cc2)n1 100 µM [inhibitor, single point], CCCCN(CC)C(=O)c1ccccc1Oc1ccccc1 70.8 µM [inhibitor, partial curve, poor fit], CNc1nc(OC)nc(N(C#N)CN2C(=O)c3ccccc3S2(=O)=O)n1 79.4 µM [inhibitor, partial curve], COc1ccc(C(=S)N2CCOCC2)cc1OC(=O)c1cc(OC)c(OC)c(OC)c1 79.4 µM [inhibitor, single point], Cc1cc(Cl)ccc1C(=O)C1CCCN(C(=O)CCN2CCCO2)C1 (configuration not stated) 89.1 µM [inhibitor, single point], COc1ccc(N2CCN(S(=O)(=O)CCNC(=O)COc3ccccc3)CC2)cc1 79.4 µM [inhibitor, partial curve], COc1ccc(NC(=S)N2CCc3cc(OC)c(OC)cc3C2)cc1 3.55 µM [inhibitor, full curve, poor fit], O=C(Cn1cc2c(n1)CCCCC2)NCc1ccccc1 28.2 µM [inhibitor, partial curve], COc1ccc(NC(=O)c2cccc(N3C(=O)c4ccc(C(=O)Nc5ccc(OC)c(O)c5)cc4C3=O)c2)cc1O 50.1 µM [inhibitor, partial curve, poor fit], N#Cc1cncc(-c2ccc3c(c2)OCCOCCOCCOCCOCCO3)n1 89.1 µM [inhibitor, single point], C[C@H](CO)N1C[C@H](C)[C@H](CN(C)C(=O)Nc2ccc3c(c2)OCO3)Oc2ncc(Br)cc2C1=O 10 µM [inhibitor, partial curve], O=C(CSCC(=O)N1CCN(c2ccccc2)CC1)Nc1nc(-c2ccc(Cl)s2)cs1 25.1 µM [inhibitor, full curve, poor fit], COc1ccc(OC)c(NC(=O)Cn2c(=O)n(CC3CCCO3)c(=O)c3cc(OC)c(OC)cc32)c1 (configuration not stated) 25.1 µM [inhibitor, partial curve], Cc1ccc(CNC(=O)COC(=O)CSc2cc(C)c(Br)cc2C)cc1 28.2 µM [inhibitor, partial curve, poor fit], CCOc1ccc(/C(CCC(=O)O)=N/NC(=S)NCCc2ccccc2)cc1 79.4 µM [inhibitor, partial curve, poor fit], Cc1cc(/C=N/Nc2nc(N3CCOCC3)nc(N3CCOCC3)n2)c(C)n1-c1ccccc1 89.1 µM [inhibitor, single point], Cc1c(Cl)ccc2c1NC(=O)[C@]21[C@@H]2C(=O)N(Cc3ccccc3)C(=O)[C@@H]2[C@@H]2CCCN21 89.1 µM [inhibitor, partial curve], COCc1cc(C)nc(SCC(=O)c2ccc(O)c(O)c2)c1C#N 70.8 µM [inhibitor, single point], CCOC(=O)c1sc(NC(=O)C2CC(=O)N(c3ccc(OCC)cc3)C2)nc1C (configuration not stated) 79.4 µM [inhibitor, partial curve], O=C(NC(=S)NC1CCCCC1)c1ccccc1[N+](=O)[O-] 35.5 µM [inhibitor, single point], CC(=O)N1N=C(c2ccc(NS(C)(=O)=O)cc2)CC1c1ccc2nccnc2c1 (configuration not stated) 89.1 µM [inhibitor, single point], CC1=NOC(=O)/C1=C\c1ccc(-c2ccc(Br)cc2)o1 3.55 µM [inhibitor, full curve, poor fit], CN(Cc1nc2c(s1)CCCC2)C(=O)CCc1nnc(-c2ccc3c(c2)OCO3)o1 100 µM [inhibitor, single point], O=C(COC(=O)c1ccc(S(=O)(=O)Nc2ccccc2)cc1)NCCC1=CCCCC1 100 µM [inhibitor, single point], Cc1noc(C)c1COc1ccccc1C(=O)NC(C)CCc1ccccc1 (configuration not stated) 22.4 µM [inhibitor, single point], CCOC(=O)C1CCCN(S(=O)(=O)c2ccc(-c3cc(C)no3)s2)C1 (configuration not stated) 89.1 µM [inhibitor, single point], COc1ccc(-c2onc(C)c2C)cc1S(=O)(=O)NCCc1ccco1 39.8 µM [inhibitor, partial curve, poor fit], COc1ccccc1C(=O)N1CC(=O)Nc2ccc(F)cc2C1c1ccccc1 (configuration not stated) 63.1 µM [inhibitor, partial curve, poor fit], CCn1c(O)c(N=NC(=O)CNC(=O)/C=C/c2ccccc2)c2ccccc21 10 µM [inhibitor, full curve, poor fit], O=C(COc1ccccc1)Nc1ccc(S(=O)(=O)Nc2ncccn2)cc1 63.1 µM [inhibitor, partial curve], CN(N)c1nc2ccccc2nc1C(F)(F)F 50.1 µM [inhibitor, partial curve, poor fit], CCc1cc(=O)oc2cc(C)cc(OCC(=O)NCCc3c[nH]c4ccccc34)c12 100 µM [inhibitor, single point], COc1ccc(NC(=O)c2ccccc2N(Cc2ccccc2)S(C)(=O)=O)cc1OC 100 µM [inhibitor, single point], COc1cccc(NC(=O)C/C(C)=N/NC(=O)C2CCCCC2)c1 89.1 µM [inhibitor, single point], O=C1CCCN1CC1CCN(Cc2nc(CC3CC3)no2)CC1 79.4 µM [inhibitor, partial curve], CCOc1ccccc1NC(=O)C(OC(=O)c1ccc(NC(=O)CC#N)cc1)c1ccccc1 (configuration not stated) 100 µM [inhibitor, single point], COc1ccc(/C=C2/SC(=S)N(NS(=O)(=O)c3ccccc3)C2=O)cc1 89.1 µM [inhibitor, single point], COc1ccccc1NC(=O)CSc1nnc(Cn2nnc(-c3ccccc3)n2)n1-c1ccccc1 100 µM [inhibitor, single point], Cc1cc2c(c(=O)o1)C(c1ccc([N+](=O)[O-])o1)C(C#N)=C(N)O2 (configuration not stated) 79.4 µM [inhibitor, partial curve], NC(=O)c1ccc(NC(=O)CCNC(=O)c2ccco2)cc1 39.8 µM [inhibitor, single point], O=C(COc1ccc2ccc(=O)oc2c1)Nc1cccnc1 39.8 µM [inhibitor, single point], CCN(CC(=O)Nc1c(F)cccc1F)C(=O)c1cccc(S(=O)(=O)N2CCN(c3ccccc3)CC2)c1 100 µM [inhibitor, partial curve, poor fit], O=C(N/N=C/c1ccc2c(c1)OCO2)c1cc(-c2ccccc2)nc2ccccc12 28.2 µM [inhibitor, full curve, poor fit], CCc1oc2ccccc2c1C(=O)c1cc(Br)c(O)c(Br)c1 39.8 µM [inhibitor, partial curve], O=C(Nc1cccc(F)c1)c1ccc(-c2cccnc2)c2ccoc12 79.4 µM [inhibitor, single point]

Potency, inactive:
Cc1cc(C)c2c(N)c(C(=O)NC3CCCC3)sc2n1, Cc1ccccc1CN1C(=O)CS/C1=N/N=C/c1ccco1, COc1ccccc1OC(=O)Oc1ccccc1OC, COc1ccc(C2N(c3ccc(Cl)cc3)N=C(C(C)=O)N(C)N2C(C)=O)cc1 (configuration not stated), COc1ccc(-c2nc(C#N)c(N3CCCCCC3)o2)cc1, COCCNC(=O)C1CCCN(C(=O)c2ccc(C(F)(F)F)nc2C)CC1 (configuration not stated), COc1ccc(S(=O)(=O)N2CCC(n3cnc4cc(C(F)(F)F)ccc43)CC2)cc1, Cn1c(=O)c2c(-c3ccccc3)n(-c3ccccc3S)cc2n(C)c1=O, CNc1ccc(Br)cc(C(=O)/C=C/c2cccc(Cl)c2Cl)c1=O, CN1OC[C@@H]2CN(S(=O)(=O)c3cccc4ccccc34)[C@H](c3ccc(N4CCCCC4)cc3)C[C@@H]21, C[C@H]1CN([C@@H](C)CO)C(=O)CCCn2nncc2CO[C@@H]1CN(C)S(=O)(=O)c1cn(C)cn1

Activity change, negative = inhibition, inconclusive:
Cc1ccc(NC(=O)CSc2nnc3ccccn23)cc1S(=O)(=O)N1CCOCC1 -30.3% [inhibitor]
